Results taken from the BET-seq Pho4 binding data (Le et al. 2018).
Some of the results follow. These are noisy estimates, calculated here from bound and input reads.

molecular target: T1, Pho4 (S. cerevisiae) (UniProt P07270); assay: relative binding free energy (BET-seq); higher = weaker binding; conditions: reference: library average
T1 sequence: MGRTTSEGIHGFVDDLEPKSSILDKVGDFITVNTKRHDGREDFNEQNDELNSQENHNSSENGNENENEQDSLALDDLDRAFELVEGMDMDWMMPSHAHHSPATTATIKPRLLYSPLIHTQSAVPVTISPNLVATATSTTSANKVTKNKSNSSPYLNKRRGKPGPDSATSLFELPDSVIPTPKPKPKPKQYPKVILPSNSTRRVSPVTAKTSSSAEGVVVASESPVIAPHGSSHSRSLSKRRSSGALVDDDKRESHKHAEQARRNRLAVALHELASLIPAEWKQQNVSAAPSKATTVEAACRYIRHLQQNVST

| Sequence | relative binding free energy |
| --- | --- |
| ATCTTCACGTGGTATG | 0.25 kcal/mol |
| AGGGGCACGTGTACTT | -0.02 kcal/mol |
| CTATTCACGTGCGTTG | 0.14 kcal/mol |
| GGTGCCACGTGTTTGA | 0.03 kcal/mol |
| CGTTACACGTGTTCGT | 0 kcal/mol |
| TGTTGCACGTGTGAGG | 0.12 kcal/mol |
| GTGGTCACGTGGGAAC | 0.03 kcal/mol |
| GTAGTCACGTGGCGTA | 0.02 kcal/mol |
| AAGGGCACGTGAGCGT | 0.13 kcal/mol |
| GTTAGCACGTGCGGTG | 0.05 kcal/mol |
| GATTTCACGTGAGTGG | 0.45 kcal/mol |
| CTTGTCACGTGCTGTG | -0.04 kcal/mol |
| GGTAGCACGTGTTATT | 0.07 kcal/mol |
| AACATCACGTGGTAGG | 0.19 kcal/mol |
| AGCCTCACGTGGAGGT | 0.14 kcal/mol |
| TATTGCACGTGTTGAG | -0.02 kcal/mol |
| GGGTACACGTGGTGCG | 0.04 kcal/mol |
| TCAGGCACGTGTGAAG | 0.07 kcal/mol |
| TCGTGCACGTGGGTGC | -0.12 kcal/mol |
| AGTTACACGTGTGCAT | 0.11 kcal/mol |
| TGTCGCACGTGTCTGT | 0.03 kcal/mol |
| TGAGTCACGTGGTAAG | 0.11 kcal/mol |
| AGAGTCACGTGACTGT | 0.24 kcal/mol |

| Sequence | relative binding free energy |
| --- | --- |
| GGTAACACGTGGATGG | 0.06 kcal/mol |
| AGGGACACGTGTAATG | -0.05 kcal/mol |
| AGGAGCACGTGGGACA | -0.17 kcal/mol |
| GGGTTCACGTGAATGG | 0.37 kcal/mol |
| GTGTACACGTGGCGAT | -0.01 kcal/mol |
| ACTGACACGTGTTTGT | -0.09 kcal/mol |
| GTTGACACGTGGAAAG | 0.03 kcal/mol |
| TGTACCACGTGTTTTG | -0.07 kcal/mol |
| AGGCACACGTGTAGTG | 0 kcal/mol |
| ATTGGCACGTGTACGG | -0.03 kcal/mol |
| GGGGGCACGTGAATTT | 0.32 kcal/mol |
| ATGGCCACGTGAAGGT | 0.13 kcal/mol |
| ACAGGCACGTGGTGTA | -0.21 kcal/mol |
| TCTTGCACGTGTAAAT | 0.15 kcal/mol |
| AGAGCCACGTGTTTAT | 0.05 kcal/mol |
| GTGCCCACGTGAGGGT | 0.17 kcal/mol |
| TTGCTCACGTGTTTGT | 0.15 kcal/mol |
| GGTGACACGTGGTTGT | 0.1 kcal/mol |
| CGTCTCACGTGTTGTA | 0.31 kcal/mol |
| TGGGGCACGTGGGCGA | -0.23 kcal/mol |
| TATTGCACGTGGTTCC | -0.01 kcal/mol |
| TGTCACACGTGTGGGA | 0.13 kcal/mol |
| TGTAACACGTGGTTTG | -0.03 kcal/mol |

| Sequence | relative binding free energy |
| --- | --- |
| CGGTTCACGTGTTAAT | 0.39 kcal/mol |
| AGGAACACGTGGGAAT | 0 kcal/mol |
| GGCGCCACGTGTGATG | 0.02 kcal/mol |
| TTGCGCACGTGTAGGC | 0.07 kcal/mol |
| TAGGGCACGTGGTGAG | -0.13 kcal/mol |
| TCAGTCACGTGGGCGT | -0.15 kcal/mol |
| TTAGACACGTGTTTAT | -0.01 kcal/mol |
| TTACTCACGTGTGGGA | 0.09 kcal/mol |
| GCAGGCACGTGGATTG | -0.01 kcal/mol |
| GGAGACACGTGTTAGT | 0.17 kcal/mol |
| ATTGTCACGTGCTCTT | 0.01 kcal/mol |
| AAAAGCACGTGCGTGG | -0.15 kcal/mol |
| CTGTCCACGTGTGGTG | 0.03 kcal/mol |
| CAGTGCACGTGGTGCT | -0.19 kcal/mol |
| GGTCCCACGTGTGAGT | 0.17 kcal/mol |
| CAGTTCACGTGGGCTG | 0.12 kcal/mol |
| AGGTTCACGTGTTGTT | 0.21 kcal/mol |
| TTTGACACGTGCTGGT | 0.02 kcal/mol |
| TTAATCACGTGGACGG | 0.18 kcal/mol |
| GAATTCACGTGGCGGT | 0.2 kcal/mol |
| TGAGGCACGTGATGCG | -0.03 kcal/mol |
| TTTGTCACGTGCGCGT | -0.05 kcal/mol |
| TAGGTCACGTGCCGGT | -0.01 kcal/mol |

| Sequence | relative binding free energy |
| --- | --- |
| TAGTACACGTGGCGTA | -0.07 kcal/mol |
| GGTAACACGTGATTTG | 0.22 kcal/mol |
| GATGGCACGTGGGAGT | -0.14 kcal/mol |
| ATGTGCACGTGGTGGT | -0.04 kcal/mol |
| ATGAGCACGTGGTATT | -0.1 kcal/mol |
| GGTAGCACGTGTTTGG | 0.04 kcal/mol |
| TGGGTCACGTGGGGTA | -0.09 kcal/mol |
| GGGGGCACGTGAGTAG | 0.1 kcal/mol |
| GGCTTCACGTGTACGG | 0.3 kcal/mol |
| GGATGCACGTGTGCAG | -0.04 kcal/mol |
| CTTGACACGTGGTAGG | -0.07 kcal/mol |
| TAATTCACGTGGGTAG | 0.22 kcal/mol |
| GGTTGCACGTGAGCCT | 0.38 kcal/mol |
| TTGATCACGTGGTACT | 0.03 kcal/mol |
| TGTGGCACGTGCAGGA | -0.11 kcal/mol |
| GTATGCACGTGGTTGG | -0.07 kcal/mol |
| AAGGGCACGTGCAAGT | -0.15 kcal/mol |
| TTGGGCACGTGTGATA | -0.01 kcal/mol |
| GTGCGCACGTGACTTG | 0.09 kcal/mol |
| TGTCGCACGTGTTGAA | 0 kcal/mol |
| TGTGACACGTGTTGCA | -0.12 kcal/mol |
| ATTGGCACGTGACGGA | -0.06 kcal/mol |
| TTGAACACGTGTTTGG | 0.04 kcal/mol |

| Sequence | relative binding free energy |
| --- | --- |
| TTGGCCACGTGAGTTT | 0.2 kcal/mol |
| TTAAGCACGTGAAAGG | 0.27 kcal/mol |
| TTTTCCACGTGGGGCG | -0.11 kcal/mol |
| GGCTGCACGTGAAAGG | 0.39 kcal/mol |
| ATGTTCACGTGTCAAT | 0.12 kcal/mol |
| AGTGGCACGTGGATAG | -0.21 kcal/mol |
| GTTGGCACGTGCGAGG | -0.05 kcal/mol |
| TGAGACACGTGTGTGT | 0.02 kcal/mol |
| CTTGTCACGTGAATGT | 0.21 kcal/mol |
| TGATGCACGTGTGTAG | 0.03 kcal/mol |
| GTTAACACGTGTTTCT | 0.04 kcal/mol |
| CATGGCACGTGGAGGA | -0.06 kcal/mol |
| TCGTGCACGTGTGAAT | 0.12 kcal/mol |
| TGGTTCACGTGTGATA | 0.34 kcal/mol |
| GGGTACACGTGCAGGA | 0.18 kcal/mol |
| TCTTGCACGTGAGTGT | 0.17 kcal/mol |
| GTTTGCACGTGGCTTC | 0.03 kcal/mol |
| TATGACACGTGTTGTG | -0.02 kcal/mol |
| TTTTTCACGTGGATGT | 0.28 kcal/mol |
| GATTTCACGTGTGTGA | 0.27 kcal/mol |
| TTCATCACGTGGGATG | 0.07 kcal/mol |
| TGTGGCACGTGCAGAA | -0.1 kcal/mol |
| ATGTTCACGTGTTTCG | 0.32 kcal/mol |
